Laboratory results taken from the supplement of paper PMC10037445.
Over roughly 2,900 compounds, “NF-kB SEAP reporter activity, fold change vs agonist alone” has its median near 0.99; the highest 2% begin near 2.6. The list shows a part of the results.

Legend:
RAW-Dual [1] = experiment: NF-kB SEAP reporter activity, fold change vs agonist alone; cytotoxicity flag (confluency mask): not cytotoxic; higher = enhanced NF-kB activity
In short: (§1)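 Supernatant from RAW-Dual macrophages was read after 20 hours for IRF by QuantiLuc luminescence and for NF-κB by QuantiBlue absorbance at 620 nm. The cells (50,000 cells/well in DMEM, 384-well plates, 37 °C, 5% CO2) had received 50 nL of library stock by pin tool and, 1 h later, a PRR agonist. Reporter activity is expressed relative to agonist-alone wells as fold change, and wells were flagged cytotoxic if IncuCyte confluency was under 70% of agonist controls in both mask sets.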

RAW-Dual [2] = experiment: NF-kB SEAP reporter activity, fold change vs agonist alone; higher = enhanced NF-kB activity; settings: library stock concentration (final ~1000-fold dilution): 10 mM, cytotoxicity flag (confluency mask): not cytotoxic
In short: as §1

[3] = agonist: ODN 1826 (TLR9) 0.5 ug/mL
[4] = agonist: Pam2CSK4 (TLR2/6) 0.1 ug/mL
[5] = agonist: Pam3CSK4 (TLR2/1) 0.1 ug/mL

Cc1cn(C2CC(O)C(CO)O2)c(=O)[nH]c1=O (stereo unspecified) (library stock concentration (final ~1000-fold dilution): 10 mM)
NF-kB SEAP reporter activity (RAW-Dual [1]; agonist: LPS (TLR4) 0.1 ug/mL): 1.16
NF-kB SEAP reporter activity (RAW-Dual [1]; [3]): 1.03
NF-kB SEAP reporter activity (RAW-Dual [1]; [4]): 1.12
NF-kB SEAP reporter activity (RAW-Dual [1]; [5]): 1.11

Cc1cn(C2CC(O)C(CO)O2)c(=O)[nH]c1=O (stereo unspecified)
NF-kB SEAP reporter activity (RAW-Dual [2]; agonist: Imiquimod (TLR7) […]): 0.952
NF-kB SEAP reporter activity (RAW-Dual [2]; agonist: MPLA (TLR4) […]): 1.03

COc1cc2ncnc(Nc3ccc(O)cc3)c2cc1OC
NF-kB SEAP reporter activity (RAW-Dual [2]; agonist: Imiquimod (TLR7) […]): 1.05
NF-kB SEAP reporter activity (RAW-Dual [2]; agonist: MPLA (TLR4) […]): 1.16

COc1cc2ncnc(Nc3ccc(O)cc3)c2cc1OC (library stock concentration (final ~1000-fold dilution): 10 mM)
NF-kB SEAP reporter activity (RAW-Dual [1]; agonist: LPS (TLR4) 0.1 ug/mL): 0.948
NF-kB SEAP reporter activity (RAW-Dual [1]; [3]): 0.826
NF-kB SEAP reporter activity (RAW-Dual [1]; [4]): 0.971
NF-kB SEAP reporter activity (RAW-Dual [1]; [5]): 0.867

NOCC(=O)O
NF-kB SEAP reporter activity (RAW-Dual [2]; agonist: MPLA (TLR4) […]): 1

NOCC(=O)O (library stock concentration (final ~1000-fold dilution): 10 mM)
NF-kB SEAP reporter activity (RAW-Dual [1]; agonist: LPS (TLR4) 0.1 ug/mL): 1.41
NF-kB SEAP reporter activity (RAW-Dual [1]; [3]): 0.89
NF-kB SEAP reporter activity (RAW-Dual [1]; [4]): 1.24
NF-kB SEAP reporter activity (RAW-Dual [1]; [5]): 1.08

CS(=O)(=O)O.N#CC1(c2ccc(NC(=O)c3cccnc3NCc3ccncc3)cc2)CCCC1 (library stock concentration (final ~1000-fold dilution): 10 mM)
NF-kB SEAP reporter activity (RAW-Dual [1]; agonist: LPS (TLR4) 0.1 ug/mL): 0.801
NF-kB SEAP reporter activity (RAW-Dual [1]; [3]): 0.615
NF-kB SEAP reporter activity (RAW-Dual [1]; [4]): 0.453
NF-kB SEAP reporter activity (RAW-Dual [1]; [5]): 0.464

CS(=O)(=O)O.N#CC1(c2ccc(NC(=O)c3cccnc3NCc3ccncc3)cc2)CCCC1
NF-kB SEAP reporter activity (RAW-Dual [2]; agonist: Imiquimod (TLR7) […]): 1.14
NF-kB SEAP reporter activity (RAW-Dual [2]; agonist: MPLA (TLR4) […]): 0.751

CCC(C)C(=O)OC1CCC=C2C=CC(C)C(CCC3CC(O)CC(=O)O3)C21 (stereo unspecified) (library stock concentration (final ~1000-fold dilution): 10 mM)
NF-kB SEAP reporter activity (RAW-Dual [1]; agonist: LPS (TLR4) 0.1 ug/mL): 3.69
NF-kB SEAP reporter activity (RAW-Dual [1]; [3]): 2.68
NF-kB SEAP reporter activity (RAW-Dual [1]; [4]): 1.45
NF-kB SEAP reporter activity (RAW-Dual [1]; [5]): 2.12

CCC(C)C(=O)OC1CCC=C2C=CC(C)C(CCC3CC(O)CC(=O)O3)C21 (stereo unspecified)
NF-kB SEAP reporter activity (RAW-Dual [2]; agonist: Imiquimod (TLR7) […]): 2.3
NF-kB SEAP reporter activity (RAW-Dual [2]; agonist: MPLA (TLR4) […]): 1.97

CC12CC(O)C3CC1(O[C@@H]1O[C@H](CO)[C@@H](O)[C@H](O)[C@H]1O)C3(COC(=O)c1ccccc1)C(=O)O2 (stereo partly specified)
NF-kB SEAP reporter activity (RAW-Dual [2]; agonist: Imiquimod (TLR7) […]): 1.03
NF-kB SEAP reporter activity (RAW-Dual [2]; agonist: MPLA (TLR4) […]): 1.03

CC12CC(O)C3CC1(O[C@@H]1O[C@H](CO)[C@@H](O)[C@H](O)[C@H]1O)C3(COC(=O)c1ccccc1)C(=O)O2 (stereo partly specified) (library stock concentration (final ~1000-fold dilution): 10 mM)
NF-kB SEAP reporter activity (RAW-Dual [1]; agonist: LPS (TLR4) 0.1 ug/mL): 1.24
NF-kB SEAP reporter activity (RAW-Dual [1]; [3]): 1.12
NF-kB SEAP reporter activity (RAW-Dual [1]; [4]): 1.1
NF-kB SEAP reporter activity (RAW-Dual [1]; [5]): 1.06

CCN(CC)C(=O)Nc1ccc(OCC(O)CNC(C)(C)C)c(C(C)=O)c1.Cl (stereo unspecified)
NF-kB SEAP reporter activity (RAW-Dual [2]; agonist: Imiquimod (TLR7) […]): 2.4
NF-kB SEAP reporter activity (RAW-Dual [2]; agonist: MPLA (TLR4) […]): 2.24

CCN(CC)C(=O)Nc1ccc(OCC(O)CNC(C)(C)C)c(C(C)=O)c1.Cl (stereo unspecified) (library stock concentration (final ~1000-fold dilution): 10 mM)
NF-kB SEAP reporter activity (RAW-Dual [1]; agonist: LPS (TLR4) 0.1 ug/mL): 3.5
NF-kB SEAP reporter activity (RAW-Dual [1]; [3]): 2.46
NF-kB SEAP reporter activity (RAW-Dual [1]; [4]): 1.6
NF-kB SEAP reporter activity (RAW-Dual [1]; [5]): 3.15
